This note sets out measurements from US20250282874A1 (SUZHOU TRANSCENTA THERAPEUTICS, published 2025).

Where a chain is given by its changes, count along the chain named. Where two headings read alike, the source gives them in different places.

Assay [1] addresses T1, human PD-L1 expressed on cells (human, UniProt Q9NZQ7). Description: cell-based or functional assay.
Assay [2] addresses T2, human TGFβ1 (human, UniProt P01137 part only).
T2 construct: also called hTGFβ-1; TGFb1
In words: ELISA; TGFβ1 coated, fusion titrated, anti-human Fc-HRP.

Assay [3] concerns the target Mouse TGFβ1 (Novoprotein, CK33) (mouse, UniProt P04202 part only). The assay is described as above.
The target in assay [4] is T3, Human TGFβ3 (Genscript, Z03430) (human, UniProt P10600 301-412).
T3 sequence (looked up): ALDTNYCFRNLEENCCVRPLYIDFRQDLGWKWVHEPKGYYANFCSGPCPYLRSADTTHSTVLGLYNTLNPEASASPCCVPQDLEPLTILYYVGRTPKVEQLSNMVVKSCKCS
Description: ELISA; TGFβ3 coated, fusion titrated, anti-human Fc-HRP.

Assay [5] addresses T1, human PD-L1 expressed on cells. Description: flow cytometry on NCI-H460 cells, Mean FITC-A.
For assay [6] the target is unchanged. In words: flow cytometry on EMT6/hPD-L1 cells, Mean FITC-A.
The target of a further assay is T4, cyno PD-L1 (cynomolgus, UniProt G7PSE7 19-238).
T4 construct: also called cynomolgus PD-L1
Description: ELISA, cyno PD-L1 coated, anti-human Fc-HRP, OD450.

Assay [7] addresses T5, hPD-L1 (Acro Biosystems, PD1-H5229) (human, UniProt Q9NZQ7 part only).
T5 construct: also called human PD-L1; hPD-L1 protein
Description: ELISA, human PD-L1 coated, anti-human Fc-HRP, OD450.

The target in assay [8] is T1, human PD-L1 expressed on cells. In words: flow cytometry on activated human T cells, Mean FITC-A.
The target of assay [9] is T5, hPD-L1 (Acro Biosystems, PD1-H5229). Description: ELISA, hPD-L1 (0.5 ug/mL) coated, anti-human Fc-HRP, OD450.
Assay [10] shares this target. Described as above. This is another data set of the same source.
Another assay deals with T6, B7-H4 (UniProt Q7Z7D3 29-258, limits assumed).
T6 sequence (looked up): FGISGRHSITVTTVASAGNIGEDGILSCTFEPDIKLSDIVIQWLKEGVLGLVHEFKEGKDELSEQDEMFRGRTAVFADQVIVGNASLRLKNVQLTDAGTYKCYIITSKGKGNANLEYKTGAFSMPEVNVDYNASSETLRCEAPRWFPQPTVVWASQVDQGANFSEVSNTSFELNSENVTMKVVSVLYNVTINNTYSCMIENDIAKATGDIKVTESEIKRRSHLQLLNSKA
Description: ELISA, antigen (0.5 ug/mL) coated, anti-human Fc-HRP, OD450.

Assay [11] addresses T1, human PD-L1 expressed on cells. In words: flow cytometry on PHA-activated human PBMC (T cells), Mean APC-A.
In assay [12] the target is cynomolgus PD-L1 on activated cynomolgus T cells (cynomolgus, UniProt G7PSE7 19-290). In words: flow cytometry on PHA-activated cynomolgus PBMC (T cells), Mean APC-A.
The next assay addresses T7, human TGFβ2 (human, UniProt P61812 303-414).
T7 sequence (looked up): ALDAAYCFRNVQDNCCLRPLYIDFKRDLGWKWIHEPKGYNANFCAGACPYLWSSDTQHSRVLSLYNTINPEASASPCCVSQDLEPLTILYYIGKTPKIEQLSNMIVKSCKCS
Description: ELISA; fusion coated, TGFβ2 titrated, biotinylated anti-TGFβ2 and HRP-streptavidin.

A further assay deals with T8, mouse TGFβ2 (mouse, UniProt P27090 303-414).
T8 sequence (looked up): T7 sequence (looked up) with S59T, R60K, K94N
The assay is described as above.

A further assay concerns the target T9, human PD-L1-Fc (human, UniProt Q9NZQ7 part only).
T9 construct: also called hPD-L1-Fc; human PD-L1-Fc (Sino Biological, 70110-D02H); not shown: Fc part
Description: competition ELISA, hPD-L1-Fc coated; blocked ligand hPD-1-Fc-biotin, OD450.

In assay [13] the target is T2, human TGFβ1. Description: bridging ELISA, hTGFβ-1 coated, detected with hPD-L1-biotin and streptavidin-HRP, OD450.
The target of the next assay is cynoPD-L1-Fc (cynomolgus, UniProt G7PSE7 19-238, Fc carrier is left out of the letters.). In words: competition ELISA, cynoPD-L1-Fc coated; blocked ligand cyno PD-1-Fc-biotin, OD450.

T5 sequence (Q9NZQ7 19-238 limits assumed): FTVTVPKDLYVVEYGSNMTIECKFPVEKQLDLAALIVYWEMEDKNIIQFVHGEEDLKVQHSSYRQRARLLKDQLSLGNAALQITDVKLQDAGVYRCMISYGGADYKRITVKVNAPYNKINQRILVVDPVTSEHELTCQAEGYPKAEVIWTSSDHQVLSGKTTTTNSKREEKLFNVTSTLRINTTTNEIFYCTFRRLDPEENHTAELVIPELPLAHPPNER
T1 sequence (Q9NZQ7 19-290): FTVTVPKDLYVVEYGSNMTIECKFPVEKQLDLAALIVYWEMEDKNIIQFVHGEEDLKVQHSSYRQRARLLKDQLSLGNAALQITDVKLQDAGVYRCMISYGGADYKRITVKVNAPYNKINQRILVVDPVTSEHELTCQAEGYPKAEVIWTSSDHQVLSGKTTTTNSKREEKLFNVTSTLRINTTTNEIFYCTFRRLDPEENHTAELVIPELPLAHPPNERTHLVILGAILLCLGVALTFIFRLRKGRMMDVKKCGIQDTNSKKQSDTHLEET
T2 sequence (P01137 279-390 limits assumed): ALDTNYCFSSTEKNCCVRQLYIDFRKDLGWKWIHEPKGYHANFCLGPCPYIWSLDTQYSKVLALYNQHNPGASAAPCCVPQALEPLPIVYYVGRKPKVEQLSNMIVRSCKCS
Chain of UniProt P04202 (P04202 279-390 limits assumed): as the sequence (P01137 279-390 limits assumed) above, with A75S counted along it
Chain of cyno PD-L1 (G7PSE7 entry or part of it limits assumed): as the sequence (Q9NZQ7 19-238 limits assumed) above, with A33T, A34S, S62N, R68Q, Q82R, F173L, T185A, T192I, H215L counted along it
Chain of cynoPD-L1-Fc (G7PSE7 entry or part of it limits assumed): as the sequence (Q9NZQ7 19-238 limits assumed) above, with A33T, A34S, S62N, R68Q, Q82R, F173L, T185A, T192I, H215L counted along it
Chain of human PD-L1-Fc (Q9NZQ7 19-239 limits assumed): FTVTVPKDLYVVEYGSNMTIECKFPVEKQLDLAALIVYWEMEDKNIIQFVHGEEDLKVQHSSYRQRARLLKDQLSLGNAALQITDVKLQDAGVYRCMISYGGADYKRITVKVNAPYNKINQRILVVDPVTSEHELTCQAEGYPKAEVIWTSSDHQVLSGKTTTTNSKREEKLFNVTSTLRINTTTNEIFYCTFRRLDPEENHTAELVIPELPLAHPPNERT

B1: AM4B6-hIgG1-TGFβRII′ (other)
heavy: QVQLVQSGAEVKKPGASVKVSCKASGYVFTDYYMNWVRQAPGQSLEWMGDINPNNAETLYNHKFKGRVTVTVDKSISTAYMELSRLRSDDTAVYYCVKWGDGPFAYWGQGTLVTVSS[human IgG1 constant region omitted here]GGGGSGGGGSGGGGSGGGGSGGAVKFPQLCKFCDVRFSTCDNQKSCMSNCSITSICEKPQEVCVAVWRKNDENITLETVCHDPKLPYHDFILEDAASPKCIMKEKKKPGETFFMCSCSSDECNDNIIFSEEYNTSNPD
light: DIQMTQSPSSLSASVGDRVTITCKASQNVGAAVAWYQQKPGKAPKLLIYSVSDRYTGVPSRFSGSGSGTDFTLTISSLQPEDIATYYCQQYSNYPTFGQGTKLEIKRTVAAPSVFIFPPSDEQLKSGTASVVCLLNNFYPREAKVQWKVDNALQSGNSQESVTEQDSKDSTYSLSSTLTLSKADYEKHKVYACEVTHQGLSSPVTKSFNRGEC
As to B1, in [1], the “IC50 (so in the source), NFAT-luciferase luminescence, hPD-L1/hPD-1 reporter cell assay” value was determined as 0.771 nM. Besides, the EC50 with human TGFβ1 [2] came to 0.748 nM; in assay [3], 0.8 nM; in assay [4] it was 5.26 nM; in [5], 0.3 nM; in assay [6], 0.261 nM; with cyno PD-L1, 0.189 nM. For the same molecule, the EC50 amounted to 0.24 nM in assay [7]; 0.206 nM in [8]; 0.644 nM in assay [11]; 1.31 nM in assay [12]; 8.46 nM with human TGFβ2; 8.88 nM with mouse TGFβ2. Besides, the entries for the “EC50 (read off the curve)” value (in [9]; in assay [10]; with human TGFβ1 [13]) were approximately 0.1 nM, approximately 0.1 nM and approximately 0.5 nM, respectively. In addition, in the assay with B7-H4, the binding result was “no binding (tested: 100 nM)”. Also, the figures for the IC50 with human PD-L1-Fc and in the assay with cynoPD-L1-Fc were 2.02 nM and 1.83 nM, respectively.
